Data as given in the supplement of paper PMC10986608.
The other results are listed elsewhere or left out. Most values come without repeats; read them as rough.

The compounds below were run on Candida albicans DPL-15 (assay: growth (OD600) after compound treatment (apparently relative to screen median) (relative growth (fraction; screen median 1.02)); DPL-15 is a caspofungin-resistant clinical isolate; higher = more fungal growth (less antifungal activity)). Conditions: 25 µM; RPMI 1640; 48 h; 30 °C.

SMILES | growth
C=C1CC[C@@H]2[C@H](C(=O)C(C)C)C3=C(O[C@@]2(C)CC[C@@H]2[C@@H]1CC2(C)C)C(C)(C)C(=O)C(C)(C)C3=O | 0.953
COc1ccc(CCn2ccc(N)n2)cc1 | 1.07
O=C1CC2(CCCCC2)CNC(=O)c2cccc(c2)/C=C/C=C\CCCCCN1 | 1.11
CC(=O)C1=C2C=CCCN2C(=O)NC1c1cc(F)ccc1C (stereo not drawn) | 0.993
C#CCOC[C@@H](NC(=O)CC1(CN)CCCCC1)c1ccccc1 | 1.22
C[C@@H]1CC2=CCC[C@H]2[C@]2(O1)C(=O)Nc1cccc(Br)c12 | 0.955
Cc1ccc(C2NC(=O)c3c2c(CC(C)C)nn3-c2ccccc2)cc1 (stereo not drawn) | 1.14
CC1(C)c2ccccc2O[C@H]2c3ccccc3C[C@H]21 | 1
O=C1NC(c2ccc3c(c2)OCO3)c2c1nn(-c1ccc(F)cc1)c2-c1ccccc1 (stereo not drawn) | 0.858
CS(=O)(=O)Oc1c(C[C@@]23CCCCC2=Nc2ccc(Br)cc23)occc1=O | 1.11
COc1ccc(C(=O)Nc2ccc(CCN3CCc4cc(OC)c(OC)cc4C3)cc2)c(N)c1 | 1.1
Cc1ccc(C#C[C@@H]2C=C[C@H](Oc3ccc4c(c3)OCO4)[C@@H](CO)O2)c(C)c1 | 0.877
CO/N=C(\c1ccco1)[C@H]1[C@@H](O)[C@@]2(O)c3c(OC)cc(OC)cc3O[C@@]2(c2ccc(OC)cc2)[C@@H]1c1ccccc1 | 1.69
CC1(C)OC(=O)c2c(CCCN(CCCCOc3ccc(CN4CCCC4)cc3)CCc3ccccc3)cccc2O1 | 0.908
COC(=O)[C@@]12Oc3ccc(C4=CCN(C(=O)OC(C)(C)C)CC4)c(O)c3C(=O)C1=C(N)C[C@H](C)[C@H]2O | 1.02
CC(=O)OC[C@H]1O[C@H](c2ccc(C(C)=O)cc2)C=C[C@@H]1OC(C)=O | 1.05
CC1=CC2Oc3cccc(O)c3C(=O)C2C(O)=C1 (stereo not drawn) | 1.12
COc1ccc(N2C(=O)c3[nH]nc(CC(C)C)c3C2c2ncccc2Cl)cc1 (stereo not drawn) | 1.07
CC(=O)OC[C@H]1O[C@H](c2ccc(F)cc2)C=C[C@H]1OC(C)=O | 0.884
COc1cc([C@@H]2[C@@H](C(=O)NCC3CC3)[C@@H](C(=O)NCC3CC3)[C@@H]2c2cc(OC)c(OC)c(OC)c2)cc(OC)c1OC | 1.06
COc1ccc(OC)c(CNCC2CCN(CCc3ccccc3C)CC2)c1 | 1.07
CCCCc1nc2c(c3c1C[C@H](C)OC3)CN(C(=O)c1cccnc1)CC2 | 1.09
CC(C)Cc1n[nH]c2c1C(c1cccc(Cl)c1)N(c1ccc3c(c1)OCO3)C2=O (stereo not drawn) | 0.921
C=CC[C@H]1C[C@@]23C[C@H](CC=C)C(C)(C)[C@@](CC=C)(C(=O)OC2=C(C(=O)c2ccccc2)C1(C)C)C3=O | 1.13
Cn1nccc1Nc1cc(O)cc(O)c1C(=O)N1Cc2ccccc2C1 | 1.02
Cc1ccc(C2C3=C(C(=O)N2c2ccccc2)N(C)CCN=C3CC(C)C)cc1 (stereo not drawn) | 0.949

SMILES | growth
COc1ccc([C@@]23Oc4cc(OC)cc(OC)c4[C@]2(O)[C@H](O)[C@H](C(=O)NOCc2ccccc2)[C@H]3c2ccccc2)cc1 | 1.2
O=C1NC(c2ccc3c(c2)OCO3)c2c1nn(-c1ccc(OC(F)(F)F)cc1)c2-c1ccccc1 (stereo not drawn) | 0.862
O=C(/C=C/c1ccccc1)N1CCC[C@H]1CO | 1.06
C=CCN1C(=O)C2=C(C(CC(C)C)=NCCN2C)C1c1ccc(Br)cc1 (stereo not drawn) | 0.835
CO[C@@H]1[C@H](O)CC[C@]2(O)CN(Cc3ccco3)[C@](C)([C@H](O)CC=C(C)C)[C@@H]12 | 1.08
CO[C@@H]1[C@H](O)CC[C@]2(O)CN(Cc3ccc4c(c3)OCO4)[C@@H](CC=C(C)C)[C@](C)(O)[C@@H]12 | 1.1
COc1ccc(-c2cnn3c(N)c(-c4ccc(F)cc4)cnc23)cc1 | 1.09
Cc1nn(-c2ccccc2)c2c1C(c1ccc(F)cc1)NC2=O (stereo not drawn) | 1.1
CCCCCN(C(=O)OC(C)(C)C)S(=O)(=O)Nc1ccc(C(C)(C)C)cc1 | 1.04
CC(C)=CCc1cc(OCC(=O)NS(=O)(=O)OCCOCc2ccccc2)cc2oc3cccc(O)c3c(=O)c12 | 0.955
COc1ccccc1Cn1nc(C(C)C)c2c1C(=O)NC2c1ccc(Br)cc1 (stereo not drawn) | 0.982
C[C@H]1C[C@@H](C)O[C@@]2(C1)C(=O)Nc1ccccc12 | 0.881
C=CCC1=C(OC)C(CC=C)(CC=C(C)C)C(=O)C(C(=O)c2ccccc2)=C1O (stereo not drawn) | 1.42
CO[C@@H]1[C@H](O)CC[C@]2(O)CN(c3ccc4ncoc4c3)[C@@H](CC=C(C)C)[C@](C)(O)[C@@H]12 | 0.997
CCCCCOS(=O)(=O)NC(C)(C)C | 1.14
COc1ccc2c(c1)[C@@H](NS(=O)(=O)c1ccc(C)cc1)[C@H](C)[C@H]2c1ccccc1 | 1.1
COCCN1Cc2cc(C(=O)OC)c3c(c2C1=O)c1cc(F)ccc1n3S(=O)(=O)c1cccc(C)c1 | 0.866
C=CC[C@@H]1C[C@@]23C[C@H](CC=C)C(C)(C)[C@@](CC=C)(C(=O)C(C(=O)c4ccccc4)=C2OC1(C)C)C3=O | 0.991
CS(=O)(=O)Oc1c(C[C@@]23CCCCC2=Nc2c(F)cccc23)occc1=O | 1.06
CC(C)C1=NCC(C)(C)NC2=C1C(c1ccc(F)cc1)NC2=O (stereo not drawn) | 0.962
COC(=O)[C@@]12Oc3cccc(O)c3C(=O)C1=C(OC)C[C@H](C)[C@H]2O | 1.12
Cc1ccc(C2NC(=O)c3nn(-c4ccccc4)c(-c4ccccc4)c32)cc1 (stereo not drawn) | 0.921
CC(C)Cc1n[nH]c2c1C(c1ccc(F)cc1)N(c1ccc3c(c1)OC(F)(F)O3)C2=O (stereo not drawn) | 1.11
CCN1C(=S)NC(c2cccc(OC)c2)C(C(C)=O)=C1C (stereo not drawn) | 1.03
CC(C)CC1=NCCN(C)C2=C1C(c1ccc(Br)cc1)NC2=O (stereo not drawn) | 1
COC(=O)[C@]1(Cc2ccccc2)NC=C(C(=O)c2ccc(OC)cc2)[C@@H]1c1ccccc1 | 1.08

SMILES | growth
C=C(C)[C@@H]1CC[C@]2(C(=O)OC)CC[C@]3(C)[C@H](CC[C@@H]4[C@@]5(C)CCC(=O)C(C)(C)[C@@H]5CC[C@]43C)[C@@H]12 | 0.905
CC(C)Cc1nn(-c2ccccc2)c2c1C(c1ccc(F)cc1)NC2=O (stereo not drawn) | 1.09
CC(C)[C@@H]1CC[C@]2(C(=O)O)CC[C@]3(C)[C@H](CC[C@@H]4[C@@]5(C)CCC(=O)C(C)(C)[C@@H]5CC[C@]43C)[C@@H]12 | 1.16
C=CCC[C@@H](O)COc1cc2c(cc1C1(c3cc4c(cc3OC[C@H](O)CCC=C)OCO4)C(=O)Nc3ccc(F)cc31)OCO2 | 0.915
O=C1CC2(CCCCC2)CNC(=O)c2cccc(c2)/C=C/C=C\Oc2ccccc2CN1 | 1.03
CC(C)(C)NS(=O)(=O)OCC12C[C@H]3C[C@@H](C1)C[C@@H](C2)C3 | 1.03
C[C@H]1C[C@H]2[C@H](O)C(=O)N[C@@H](Cc3ccccc3)C(=O)N2[C@H]1c1cccc(Br)c1 | 1.26
C=CC[C@]12C[C@@]3(O[C@H](c4ccc(C(F)(F)F)cc4)N=C3C[C@H](c3ccc(OC)cc3)[C@H]1C)N(Cc1ccncc1)C2=O | 0.998
COc1cc(OC)c2c(c1)O[C@@]1(c3ccc(C#N)cc3)[C@H](c3ccccc3)[C@@H](CN(C)C)[C@@H](O)[C@@]21O | 1.21
COc1ccc2c(=O)c3ccccc3oc2c1O | 1.09
COC(=O)c1c(O)c(C)c(OCc2ccccc2)c(C)c1OCc1ccccc1 | 1.01
COc1ccc(Cn2ncc(C)c2N)cc1 | 0.971
C#CCN(C)C(=O)c1nnc(C(=O)OC)c2c1c1ccccc1n2Cc1ccccc1 | 1.28
C[C@H](NC(=O)N1CCc2nc(COc3ccccc3)c3c(c2C1)CO[C@@H](C)C3)c1ccccc1 | 1.21
COc1ccc(Cn2nccc2Nc2cc(O)cc(O)c2C(=O)N2Cc3ccccc3C2)cc1 | 0.999
CC#C/C(O)=C1/C(=O)OCc2c(OCc3ccccc3)cc(OC)cc21 | 1.01
COC(=O)[C@]1(Cc2ccccc2)NC=C(C(=O)c2ccccc2)[C@@H]1c1ccccc1 | 1.04
C=CCC1=CC(O)CCC1=O (stereo not drawn) | 1
C[C@H]1C[C@H]2CC(=O)N[C@@H](Cc3ccccc3)C(=O)N2[C@H]1C1CC1 | 0.998
C=CCN1C(=O)C2=C(C(C)=NCC(C)(C)N2)C1c1ccc(F)cc1 (stereo not drawn) | 0.997
CCc1cc(N)n(Cc2ccc(OC)cc2)n1 | 1.03
CC1(Cc2occc(=O)c2O)C=Nc2ccccc21 (stereo not drawn) | 1.11
COc1ccc(Cn2nc(-c3ccccc3)cc2Nc2cc(O)cc(O)c2C(=O)N(C)CC2CC2)cc1 | 1.12
COc1cc(OC)c2c(c1)OC(Cc1ccc(F)cc1C(F)(F)F)(c1ccc(Br)cc1)C2=O (stereo not drawn) | 0.924
COc1cc(OC)c2c(=O)c(O)c(-c3ccc(Br)cc3)[nH]c2c1 | active: 0.0763
CCOc1ccc(-n2c(C)c3c(C)nnc(Nc4ccncc4)c3c2C)cc1 | 1.07
